The test relates to NCI-H322M lung. Briefly: NCI anticancer screen, dose series, 48 h.

This is an account of results in PubChem BioAssay (NCI).

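Growth conditions: 96-well plates. Treatment: test compound, 48 hours, 5 concentrations. Analysis: linear interpolation between bracketing concentrations; unreached endpoints set to highest concentration. GI50 is the concentration that inhibits growth by half. TGI marks complete inhibition of growth.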

Turning to `O=C(CSc1nnc(-c2ccc(-c3nc4ccccc4[nH]3)cc2)o1)Nc1ccc(Cl)cc1`, the GI50 was 11.4 µM and the TGI came out at 25.6 µM.
